From PubChem BioAssay AID1346428 (National Center for Advancing Translational Sciences (NCATS), 2018) come the findings set out here.

Where “and” joins values, the source holds several entries; their conditions need not be identical. Equal values may be shown once. The campaign covered roughly 48,000 compounds. About 1,200 (2.5%) were called active. Not shown: some 2% with an inconclusive outcome.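 The calls were made as follows: active = activation of at least 60% and not above a set upper limit (about 1 call in 100 departs from these limits); inconclusive = activation of 40% to 60%, or above that upper limit; inactive = activation under 40%.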 The list shows a part of the results.

Sequence of UniProt O75388 (O75388 whole entry, looked up): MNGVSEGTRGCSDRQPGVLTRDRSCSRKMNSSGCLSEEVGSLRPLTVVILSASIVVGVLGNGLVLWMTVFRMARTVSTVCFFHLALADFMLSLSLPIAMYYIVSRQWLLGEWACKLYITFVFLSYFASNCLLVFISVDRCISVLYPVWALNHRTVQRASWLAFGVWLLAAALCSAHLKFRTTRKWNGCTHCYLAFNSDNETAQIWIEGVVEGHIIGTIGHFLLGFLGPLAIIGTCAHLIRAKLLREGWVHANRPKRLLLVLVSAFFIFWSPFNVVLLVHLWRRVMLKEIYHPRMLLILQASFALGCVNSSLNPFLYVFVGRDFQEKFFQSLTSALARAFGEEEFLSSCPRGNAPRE

The target of this assay is Probable G-protein coupled receptor 32 (Homo sapiens) (UniProt O75388). In words: qHTS for Agonists of Human Resolvin D1 Receptor DRV1. Also: 0% is about no effect. The conditions noted are these: CHO-K1 GPR32 beta-arrestin PathHunter luminescence, 90 min; at 76.9 µM; hits give high values; zero percent set by DMSO-only wells. Put shortly:
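CHO-K1 cells stably expressing ProLink-tagged GPR32 and Enzyme Activator-tagged beta-arrestin were seeded at 2,500 cells/well overnight, exposed to compounds for 90 min at 37 °C, then read by beta-Gal complementation chemiluminescence after 1 h detection reagent.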
For orientation: Quantitative high-throughput screening tests each substance at several concentrations.
With `COCCCNC(=O)C1CCCN(c2nn3cc(-c4ccc(C)cc4)nc3s2)C1` (configuration not stated), the activation is inactive: -12.1%.
As to `Cc1ccc(-c2nc3cc(C(C)C)ccc3o2)cc1NC(=O)c1cc([N+](=O)[O-])ccc1N1CCOCC1`, the activation is inactive: -7.78%.
Turning to `CCOc1ccc(-c2noc(CSc3nnc(Cc4ccccc4)n3-c3cccc(C)c3)n2)cc1`, the activation was inactive: -27.8%.
The same measure for `CCOc1ccc(NC(=O)CN(C)S(=O)(=O)c2cnc[nH]2)cc1`: inactive: -8.69%; for `O=C(CSc1nnc2[nH]c(=O)cc(-c3ccccc3)n12)Nc1cc(C(F)(F)F)ccc1Cl`: inactive: -6.12%; for `Nc1c(C(=O)Nc2cccc(C(F)(F)F)c2)c2ccccn2c1C(=O)c1ccccc1`: inactive: 31.3%.
For the compound `CCC1Nc2cc(Cl)c(S(N)(=O)=O)cc2S(=O)(=O)N1` (configuration not stated), the activation is inactive: -13.9%.
Regarding `CC(=O)Nc1nonc1-c1nc2ccccc2n1Cc1ccccc1Br`, the activation was inactive: -16.7%.
Regarding `COc1cc2c(cc1OC)C(COc1ccc3c(C)cc(=O)oc3c1)N(C(=O)CC(C)C)CC2` (configuration not stated), the activation was inactive: -15.1%.
Regarding `Cc1ccc2oc(-c3cc(NC(=O)/C=C/c4ccco4)ccc3Cl)nc2c1`, the activation was inactive: -16.4%.
The same measure for `Cc1ccc2c(c1)N(C(=O)Nc1cccc3c1CCCC3)CC(C)O2` (configuration not stated): inactive: -31.6%; for `Brc1ccc2nc(SCCOc3ccccc3)[nH]c2c1`: inactive: 15.3%; for `CCOC(=O)c1noc2nc(C)n(Cc3ccc([N+](=O)[O-])cc3)c(=O)c12`: inactive: -4.82%.
The same measure for `Cc1cccc(Cn2nnc3c(=O)[nH]c(C4CCN(C(=O)c5ccc(F)cc5)CC4)nc32)c1`: inactive: -12.5%; for `COC(=O)c1cc(NC(=O)c2ccc(-c3ccc(Cl)cc3Cl)o2)cc(C(=O)OC)c1`: inactive: -1.51%; for `COc1ccc(NC(=O)CCc2c(C)nc3c(-c4ccc(F)cc4)c(C)nn3c2C)c(OC)c1`: inactive: 8.5%.
As for `Cc1ccccc1CN1CCCN(CC(=O)Nc2ccc3c(c2)OCCO3)S1(=O)=O`, the activation is inactive: 26.7%.
Consider `CCn1c(=O)cc(SCC(=O)N2CCN(c3ccccc3F)CC2)c2ccccc21`, for which the activation is inactive: -1.05%.
For the compound `O=C(NCc1cccc(Cl)c1)C1CCCN(c2ncnc3onc(-c4ccc(F)cc4)c23)C1` (configuration not stated), the activation is inactive: -17.9%.
With `COc1ccccc1NC(=O)c1cc(S(=O)(=O)NCCC2=CCCCC2)ccc1F`, the activation is inactive: -15.7%.
As for `CCOc1ccc(NC(=O)c2c(NC(=O)c3cccs3)sc3c2CCC(C(C)(C)C)C3)cc1` (configuration not stated), the activation was inactive: -20.7%.
For the compound `CN1CCN(C(CNC(=O)c2ccccc2)c2ccc3c(c2)OCO3)CC1` (configuration not stated), the activation is inactive: -0.989%.
For the compound `Cc1ccc(S(=O)(=O)c2cn(Cc3ccc(F)cc3)c3cc(N4CCCC4)c(F)cc3c2=O)cc1`, the activation was inactive: -9.13%.
`CCOc1ccc(CCNC(=O)c2cc3sc(CC)cc3n2C)cc1OCC`: the activation is inactive: -10.6%.
Turning to `CCc1ccccc1NC(=O)C(=O)NCCc1sc(-c2cccc(F)c2)nc1C`, the activation was inactive: -1.76%.
Take `Cc1ccc(CNC(=O)c2ccc(-c3nc(CS(=O)(=O)c4ccc(C)cc4)c(C)o3)cc2)cc1`: the activation is active: 110%.
With `Cc1[nH]c2ccccc2c1SCCNC(=O)c1ccccc1F`, the activation is inactive: -14.3%.
In the case of `COC(=O)c1ccccc1-n1c(CCC(=O)O)ccc1-c1ccccc1`, the activation was inactive: -8.55%.
Regarding `COc1cccc(CNC(=O)c2ccc3c(c2)nc2n3CCC(C)C2)c1OC` (configuration not stated), the activation was inactive: -7.34%.
For `O=C(NCc1ccccc1Cl)c1cc2cccc3c2n1CCS3` the value was inactive: -7.54%; for `CC(C)Oc1ccc(CNC(=O)Cn2ncn3nc(-c4cccs4)cc3c2=O)cc1`, inactive: 6.46%.
In the case of `CCOC(=O)C1CCCN(C(=O)c2[nH]c3ccccc3c2Sc2ccc(Cl)cc2)C1` (configuration not stated), the activation is inactive: -11%.
For the compound `COc1ccc(C(=O)NCC(c2ccco2)S(=O)(=O)c2cccs2)cc1OC` (configuration not stated), the activation is inactive: -18.6%.
For `Cc1ccnc(NS(=O)(=O)c2ccc(NC(=O)c3nc(SC(C)C)ncc3Cl)cc2)n1` the value was inactive: -4.47%; for `Cc1cccc(-c2nc3ccccc3n3c(-c4ccccc4)c4c(=O)n(C)c(=O)n(C)c4c23)c1`, inactive: -7.52%; for `CC(C)(C(=O)O)c1ccc(C(O)CCCN2CCC(C(O)(c3ccccc3)c3ccccc3)CC2)cc1` (configuration not stated), inactive: 8.57% and inactive: -9.04%.
`O=C(Nc1ccc(F)c(Cl)c1)N1CCC(CN2CCc3ccccc3C2)CC1`: the activation is inactive: -25.1%.
With `CCC(C)NC(=O)CCc1c(C)nc2cc(-c3ccc(OC)cc3OC)nn2c1C` (configuration not stated), the activation was inactive: -2.88%.
Turning to `Cc1cccc(CCNC(=O)C2CCN(c3nc4ccccc4nc3C(F)(F)F)CC2)c1`, the activation is inactive: -1.99%.
Regarding `CCc1ccc(NC(=O)Cn2cnc3sc(C)c(S(=O)(=O)N4CCN(c5ccccc5OC)CC4)c3c2=O)cc1`, the activation was inactive: -6.97%.
As to `Cc1ccc(-n2ncc3c(NCC(C)C)ncnc32)c(C)c1`, the activation is active: 62.3%.
For `CCc1cccc(NC(=O)c2ccc(CNS(=O)(=O)c3ccc4c(c3)C(C)(C)C(=O)N4C)cc2)c1` the value was inactive: -8.17%.
For `COc1ccccc1-c1cc2nc(C)c(CCC(=O)Nc3cc(C)ccc3C)c(C)n2n1`, the activation is inactive: 9.13%.
For `COC(=O)c1ccccc1-n1cc2c(c1-c1cccc(C)c1)c(=O)n(C)c(=O)n2C` the value was inactive: -11.8%; for `Cc1oc(-c2ccccc2F)nc1CSc1nnc(C)n2c1cc1occc12`, inactive: 10.5%.
Regarding `CC(C)(C)OC(=O)N1CCC(c2c(C(=O)N3CCOCC3)cnn2-c2cccc(F)c2)CC1`, the activation was inactive: -3.48%.
Take `Cc1ccc(C)c(NC(=O)Nc2cccc(-c3cn4cccnc4n3)c2)c1`: the activation is active: 79.7%.
In the case of `COc1ccc(-n2nnc(-c3nc(-c4cccs4)no3)c2N)cc1`, the activation is inactive: -1.11%.
As to `CCCN(CCC)CCNC(=O)C1CCN(c2nc3ccc(CC)cc3s2)CC1`, the activation is inactive: -2.39%.
For `O=C(CSc1nc2c(c(=O)[nH]1)CN(Cc1ccc3c(c1)OCO3)CC2)Nc1ccc(F)c(F)c1` the value was inactive: 24.5%; for `O=C(Nc1ccc(C(=O)N2CCN(c3ccccc3)CC2)cc1)c1nsc2ccccc12`, inactive: -26.1%; for `CCOC(=O)c1cnc2ccc(Cl)cc2c1Nc1ccc(N2CCOCC2)cc1`, inactive: 7.96%.
